# In the supplement of paper PMC3334620:
# The full ranking holds about 33,000 sequences; the median of “E-score (-0.5 to 0.5)” is about -0.035, and the highest 2% start at about 0.35. This is one part of the list.
# Target: T1, Pdr3 (UniProt P33200)
# T1 sequence: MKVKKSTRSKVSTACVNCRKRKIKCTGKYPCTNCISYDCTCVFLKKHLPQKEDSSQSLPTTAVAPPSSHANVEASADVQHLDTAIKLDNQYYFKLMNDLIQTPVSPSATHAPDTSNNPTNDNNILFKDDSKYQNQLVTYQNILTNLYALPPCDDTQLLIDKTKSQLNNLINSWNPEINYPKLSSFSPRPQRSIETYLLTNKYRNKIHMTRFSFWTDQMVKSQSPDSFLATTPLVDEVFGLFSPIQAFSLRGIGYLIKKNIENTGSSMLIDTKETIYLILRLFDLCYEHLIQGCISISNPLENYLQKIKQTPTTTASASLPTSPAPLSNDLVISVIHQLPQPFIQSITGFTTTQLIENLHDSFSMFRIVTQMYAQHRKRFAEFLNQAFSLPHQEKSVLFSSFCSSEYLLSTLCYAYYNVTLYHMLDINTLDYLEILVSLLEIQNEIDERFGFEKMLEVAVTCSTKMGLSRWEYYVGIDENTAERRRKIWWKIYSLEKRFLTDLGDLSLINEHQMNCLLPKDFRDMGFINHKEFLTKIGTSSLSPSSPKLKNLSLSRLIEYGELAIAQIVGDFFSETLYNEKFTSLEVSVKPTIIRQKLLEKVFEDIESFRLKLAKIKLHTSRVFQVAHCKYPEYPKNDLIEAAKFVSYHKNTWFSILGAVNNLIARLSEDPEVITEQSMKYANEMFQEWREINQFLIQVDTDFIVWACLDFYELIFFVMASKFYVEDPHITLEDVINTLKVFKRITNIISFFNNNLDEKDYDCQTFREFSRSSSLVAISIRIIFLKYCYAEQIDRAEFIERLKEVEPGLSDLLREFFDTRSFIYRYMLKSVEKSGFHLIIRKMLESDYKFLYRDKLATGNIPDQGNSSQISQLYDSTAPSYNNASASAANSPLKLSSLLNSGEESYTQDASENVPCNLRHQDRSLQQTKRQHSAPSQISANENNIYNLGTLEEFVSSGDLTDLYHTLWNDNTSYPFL
# Experiment: PBM E-score (8-mer binding enrichment) (E-score (-0.5 to 0.5)); higher = stronger / more preferred TF binding; most listed sequences are background and not binding sites
# Conditions: protein concentration: 200 nM; construct: GST-full length
# Procedure, shortened: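 PURExpress in vitro transcription/translation supplied GST-tagged yeast transcription factors, either full-length or DNA-binding domain. Applied at about 100-200 nM to universal all-10-mer Agilent arrays double-stranded by primer extension, the bound protein was detected with fluorescent anti-GST. E-scores, modified Wilcoxon-Mann-Whitney statistics, were given by the Universal PBM Analysis Suite to ungapped eight-base words pooled with their reverse complements after masliner normalisation.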
row,Sequence,PBM E-score
1,CCGCGCCC,0.204
2,AAGAGTAC,-0.118
3,AATAGAGC,0.0603
4,GGCCCGGA,0.336
5,AAGCATCA,0.0281
6,ACCACTTC,0.00985
7,AACGCAAT,0.115
8,CGGTGTAG,-0.0315
9,ATAGTACA,0.0326
10,AGCTGCGC,0.0824
11,TAAATCTA,-0.0322
12,AGGGAAGG,-0.211
13,CCATTCTC,0.00325
14,ACTTGCGC,0.0195
15,ATACGTGA,-0.134
16,CCCAGCCA,0.0134
17,ATGTCTAG,-0.064
18,CCTCGGTA,-0.105
19,ACGTCTTC,-0.0882
20,ACCTATGC,-0.124
21,CGCGTTAG,-0.0137
22,ATGAACTA,0.0325
23,GATGGTGC,-0.341
24,AGGTGCTA,-0.16
25,AGGCCGGC,0.291

row,Sequence,PBM E-score
1,CCCGTTAG,0.00367
2,ATATGAAT,0.172
3,ACCCCAGC,0.0399
4,ATTACGAA,-0.115
5,CCCGACAG,0.0838
6,ACGCAAAC,-0.165
7,CGGCATAG,0.183
8,TATTTTAA,0.0515
9,CCCATCAG,-0.2
10,GAGTGATC,0.0656
11,ATTTACGA,0.0189
12,ATCTGACC,0.168
13,TAGGCAGA,-0.089
14,GCTGGGCA,-0.0838
15,AGGTCCTC,0.0684
16,AGCGTGAA,-0.352
17,ACCAACTA,-0.017
18,TCCGGAGA,0.44
19,CATCATCG,0.0761
20,CCACCTAG,-0.0573
21,AAGACCGC,-0.0804
22,CTGTAGAC,-0.0935
23,ATACTCGA,-0.103
24,CGCGCGCG,0.372
25,TCGCTGCA,-0.112

row,Sequence,PBM E-score
1,CTGGATTA,0.267
2,TTACACAA,-0.0614
3,CGCCGTCA,0.195
4,ACCCTTCT,-0.177
5,TCCGCTAA,0.277
6,CGCTGTAC,-0.102
7,ACATGGGC,0.144
8,CACGGAAG,0.386
9,GAGCGCGA,0.213
10,AACGTAGC,-0.31
11,ATGACTTA,-0.113
12,GCTGCTCC,0.131
13,GATGGTGA,-0.0273
14,CCCACCAC,0.136
15,AACCTCCA,-0.224
16,GACTGCGA,-0.0659
17,GCGGGAAC,0.286
18,ATGCCTAA,-0.117
19,CTAACGTC,-0.133
20,CGCTGGAG,-0.038
21,CACGAACG,0.05
22,ACCGCCTG,0.00902
23,ATCTACCA,-0.00908
24,GAGTGACA,0.0178
25,GAGGACTA,-0.188

row,Sequence,PBM E-score
1,AGGACACG,0.0456
2,AATTATCA,-0.0246
3,AACTGGAC,-0.137
4,ATACGCAA,-0.199
5,ACTGGGGA,0.021
6,AGTCTTGA,-0.189
7,AAGAAGCG,-0.0756
8,CGATTCAC,-0.0141
9,GAACGAGC,0.184
10,AGGGTCGC,0.0759
11,AATAAGCA,-0.145
12,CCGGGCTC,0.224
13,ACGCCAAG,-0.212
14,TACTGATA,0.0935
15,AGTCACAC,-0.18
16,CTTTTTGC,0.0918
17,AGATGTAG,-0.089
18,ATTTAGAC,-0.00798
19,GCGCGTAA,0.083
20,CTAGTTCA,-0.0835
21,AGGGATAG,-0.138
22,AGATCGGC,0.134
23,AACTTTCA,-0.0834
24,GCTCTCCA,-0.247
25,CTGACCGA,-0.00863

row,Sequence,PBM E-score
1,AAAGAACC,0.0551
2,GCAGCGTA,-0.109
3,AAAGGCCT,-0.348
4,AACCCCAG,-0.0219
5,AACTGCGA,-0.0651
6,ATTTTTCC,0.216
7,CTGGAAGA,-0.108
8,AACCCCCG,-0.0723
9,GCTGCTGA,-0.0859
10,AGGTGCGA,-0.142
11,AGAAAGAA,-0.0141
12,CAAGCTGG,-0.199
13,TAGATAGA,-0.143
14,TCATTCGA,-0.0606
15,CCAACGCC,-0.0466
16,ATTGCAAC,0.115
17,AAACCGGG,0.176
18,ATTAGCAG,-0.0762
19,AGTTTCGA,-0.0452
20,CCATTGGC,-0.104
21,TCATTAGA,-0.15
22,AGACCTGG,-0.0795
23,TCGCGCCA,0.0694
24,ATTACTAC,-0.195
25,ACAGCCGT,0.0938

row,Sequence,PBM E-score
1,CGTAGGAA,-0.163
2,ATTACCGG,0.243
3,TCTAGTAA,-0.01
4,CATCCTGG,-0.0192
5,ATGGATGG,-0.0268
6,CGGCTCGA,0.174
7,ACAAAGCG,-0.0901
8,GATTAACA,-0.0315
9,ACGGAGAC,0.321
10,GCTAGCGA,-0.109
11,AAGTTATA,-0.0822
12,ACCGAACC,0.00677
13,ATGCTAGA,-0.298
14,GGCGTATA,-0.203
15,TAGTCGGA,0.322
16,CTAACTCC,0.0377
17,TTATCGAA,-0.00898
18,ATCGTAGA,-0.204
19,AACGAAAA,-0.0107
20,AACGAGAA,-0.0948
21,CTTACGTA,-0.191
22,TACCTACA,-0.106
23,AACTTTCC,0.238
24,ATAAGAAA,0.0247
25,ACTAACCG,0.1

row,Sequence,PBM E-score
1,ACCCGAGT,0.218
2,ATTTCCCC,0.0635
3,GATGCACA,0.0149
4,GTTGTCGA,-0.00166
5,ATGATGTA,0.036
6,AGCACATA,-0.113
7,ACTCGGGC,0.0775
8,AGGTGGTG,-0.202
9,CTATAGAA,-0.188
10,GATGATCC,0.158
11,CTAACCGC,-0.0294
12,CCGGAGAG,0.363
13,ATGCTTTC,-0.0701
14,GGTATTTA,0.0219
15,AAAAGAAG,-0.0181
16,ACGGACCG,0.309
17,GAACTTGA,0.0655
18,CCTTGAAG,-0.269
19,ACCCCATA,0.0987
20,AGAAGGAT,-0.296
21,GCGTTATA,-0.00346
22,GACTCCCA,-0.241
